{"source": "the supplement of paper PMC11417369", "note": "Some of the results follow.", "data": [{"tested_on": "PF3D7_0420300 AP2 domain 1 (GST-tagged)", "assay": "gcPBM binding intensity (ln(normalized median fluorescence intensity)); higher = stronger DNA binding", "outline": "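Using an Agilent 4 × 180k array, primer-extended double-stranded 36-bp intergenic genomic probes and negative controls were exposed for 1 h to GST-fused P. falciparum DNA-binding domains expressed in E. coli. Binding was carried out in 1× PBS with 1% milk, 0.2 mg/ml BSA, 0.5% salmon testes DNA and 0.03% Triton X-100, and protein was detected with Alexa488 anti-GST antibody and a 488 nm scan. Binding intensity is the highest Masliner-normalised natural-log median intensity across replicate spots of either probe orientation.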", "values": [{"sequence": "TAAACAGACATATAAACACACATACATACATACATA [CACACA_site7215]", "gcPBM binding intensity (ln)": 9.56}, {"sequence": "AAAAAAAAAAAAAAAACACACATAAAACTATAATAA [CACACA_site7758]", "gcPBM binding intensity (ln)": 9.47}, {"sequence": "GAAGAGACTTAGAAAACACACATACATAAGATAATT [CACACA_site5333]", "gcPBM binding intensity (ln)": 9.63}, {"sequence": "ATATGTATCTCATCGTGTACATGTATATAATATATA [XGTACX_site4139]", "gcPBM binding intensity (ln)": 9.37}, {"sequence": "ATATAGTAAAGTTATACACACATGAATTTTCCCATG [CACACA_site6923]", "gcPBM binding intensity (ln)": 9.55}, {"sequence": "ATATATCAAAATAATTGTACAAATTTTATATAATTT [XGTACX_site7249]", "gcPBM binding intensity (ln)": 9.12}, {"sequence": "TTAGAAAAATTATATATACACACTTATATTTATATA [CACACA_site2821]", "gcPBM binding intensity (ln)": 9.13}, {"sequence": "GTATTACATGAGGACACACACAAAAAAAATATATAT [CACACA_site769]", "gcPBM binding intensity (ln)": 9.91}, {"sequence": "TAATTATTTTAAAAAGTGCATTAAAAGATATTAAAT [GTGCAC_site9694]", "gcPBM binding intensity (ln)": 9.05}, {"sequence": "TTATTATAAAAATGTAGTACAATACTTTTTTTTTTT [XGTACX_site732]", "gcPBM binding intensity (ln)": 8.84}, {"sequence": "TATATATCTATAAACACACACCAAAATTTGTGCTTT [CACACA_site7448]", "gcPBM binding intensity (ln)": 9.48}, {"sequence": "ATAAAATGAACAAACACACACACATATATTTATATA [CACACA_site7181]", "gcPBM binding intensity (ln)": 10.1}, {"sequence": "AAATAAAAAGAAAAGAAAAAGAAAATAAAAAGAGAA [XGTACX_negctrl_site14]", "gcPBM binding intensity (ln)": 9.72}, {"sequence": "ATATACTTTAAAGGTTAAGAAAGAAAAAAAAAAAAA [CACACA_negctrl_site956]", "gcPBM binding intensity (ln)": 8.93}, {"sequence": "ATATATATATATTATATGCACACGTTAAAATTTCAT [CACACA_site709]", "gcPBM binding intensity (ln)": 9.42}, {"sequence": "AAAAATAAATTTATATATTACAAGAACAAATATAGT [XGTACX_negctrl_site567]", "gcPBM binding intensity (ln)": 9.42}, {"sequence": "GAATAAATAAGATACGTACACACATATACAAAATAT [CACACA_site3660]", "gcPBM binding intensity (ln)": 9.88}, {"sequence": "ATAATATAAACGTATACACACAAGAGAAGCATAAAG [CACACA_site2889]", "gcPBM binding intensity (ln)": 9.96}, {"sequence": "AAAAGGAAAGGAAAGGGTACAATCCTATTATATTAT [XGTACX_site8652]", "gcPBM binding intensity (ln)": 9.25}, {"sequence": "TTTTTTTAAAAAAAGGGTACATATATATATTTTTCT [XGTACX_site1066]", "gcPBM binding intensity (ln)": 9.07}, {"sequence": "TTATATTTAGTATATGCACACTTTATGTTTGTTATT [CACACA_site5163]", "gcPBM binding intensity (ln)": 9.48}, {"sequence": "TATAAATACGAACACACACACCTTATAATTACTACT [CACACA_site7827]", "gcPBM binding intensity (ln)": 9.98}, {"sequence": "AAGAAAGGTTAAACATGTACATAAATATTTTACATA [XGTACX_site5024]", "gcPBM binding intensity (ln)": 9.36}, {"sequence": "TATCTTTTTATTTTTTATTTTTTTTTTATAATTTAC [XGTACX_negctrl_site414]", "gcPBM binding intensity (ln)": 9.27}, {"sequence": "TCATTGAAAATTGTTGCACACATAATAATTAAATAT [CACACA_site8554]", "gcPBM binding intensity (ln)": 9.26}, {"sequence": "ACACATATGTCTTCATGTACATAATATATAAATCTT [XGTACX_site3438]", "gcPBM binding intensity (ln)": 9.26}, {"sequence": "CATAAATCAGCCATAACACACATACATATATACATA [CACACA_site8025]", "gcPBM binding intensity (ln)": 9.63}, {"sequence": "TCTTGTTTATCAACAGCACACACAACAACAACAACA [CACACA_site8046]", "gcPBM binding intensity (ln)": 9.49}, {"sequence": "TAAAGGTAGATATATTGTACATACACACCTATATAA [XGTACX_site6865]", "gcPBM binding intensity (ln)": 9.31}, {"sequence": "TATATATATACAGTTGCATGTTGTGTTTAAAATTTT [TGCATGCA_site816]", "gcPBM binding intensity (ln)": 9.53}, {"sequence": "TGTTAAAAAATGGATGCACACATTAAATAAAAAGTA [CACACA_site1660]", "gcPBM binding intensity (ln)": 9.53}, {"sequence": "ACATTATATTTGGACTGTACTAATATATTGTTATAT [XGTACX_site5573]", "gcPBM binding intensity (ln)": 9.25}, {"sequence": "TATACATATATATATTGTACATATTATATATATATA [XGTACX_site3286]", "gcPBM binding intensity (ln)": 9.13}, {"sequence": "ATATATATATATATATGTACATATTGTATCTTATAC [XGTACX_site5466]", "gcPBM binding intensity (ln)": 9.2}, {"sequence": "ACATTTAATGTTATATGTACATAATATTATAAGTAT [XGTACX_site1393]", "gcPBM binding intensity (ln)": 9.3}, {"sequence": "AATGTAAAAGTAAACACACACATATATTTATACATA [CACACA_site7218]", "gcPBM binding intensity (ln)": 9.77}, {"sequence": "AGCCATATCTTTTTTGCACACACTACAATAAAACAA [CACACA_site1650]", "gcPBM binding intensity (ln)": 9.56}, {"sequence": "CATATGGCAATAATTACATGCAAAAAAAAAAAAAAA [TGCATGCA_site578]", "gcPBM binding intensity (ln)": 8.88}, {"sequence": "ACAGACGTTCAAAGGTGTACGCAAAATGAATAATAT [XGTACX_site7565]", "gcPBM binding intensity (ln)": 9.22}, {"sequence": "AAAAAAAAGAAAAACACACACATATATATATATAAT [CACACA_site4707]", "gcPBM binding intensity (ln)": 9.97}, {"sequence": "GTAAATCGACACATACGTACATACATTTATATATAT [XGTACX_site3143]", "gcPBM binding intensity (ln)": 9.48}, {"sequence": "TTCTTATTTAATGTATCACACACGAGAATAAAAAAT [CACACA_site8992]", "gcPBM binding intensity (ln)": 9.31}, {"sequence": "TATATATATATATAATGTACTTATATTTTTTTGAGG [XGTACX_site2638]", "gcPBM binding intensity (ln)": 9.18}, {"sequence": "TTAATTAAAACGAATACACACATAAATATGTAAAAG [CACACA_site6707]", "gcPBM binding intensity (ln)": 9.67}]}]}
